Source: the supplement of paper PMC10126150
Values marked as one replicate rest on one cluster of the flow cell; about a third of the high ones do not repeat.

system: ATP; assay: switch fluorescence ratio, 500 uM ATP over buffer (Cy3 cluster intensity, sum of 5 cycles each) (fold (ratio)); higher = stronger signal-on switching upon ATP binding; sequences stand for … in TCGTCGGCAGCGTCAGATGTGTATAAGAGACAGTTTTTTTTTTTTTTTTTTTTTTTTT…TC; conditions: aptamer strand: ATP DNA aptamer (quencher-CACCTGGGGGAGTATTGCGGAGGAAGG + anchor), 100 nM annealed; ATP concentration: 500 uM; one replicate
Outline: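 Exposure to 500 uM ATP lasted 15 min at 22 °C before imaging, and a selection-buffer image was taken beforehand, for Cy3-labelled switching-strand clusters on a modified Illumina MiSeq flow-cell annealed to 100 nM quencher-labelled ATP aptamer. Five buffer/ATP cycles were run with NaOH stripping and re-annealing between them. The fluorescence ratio per cluster is summed target-cycle over summed buffer-cycle Cy3 intensity, averaged per switch-domain sequence. Clusters outside 100-1000 RFU were excluded.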

Sequence | switch fluorescence ratio
GTTGGCTGCT | 1.06
GTTGGCTGT | 0.992
GTTGGCTGTA | 0.942
GTTGGGATCC | 1
GTTGGGCGCG | 0.961
GTTGGTCGCA | 1.05
GTTGGTGAGA | 0.929
GTTGGTTCTG | 0.995
GTTGTAAAAC | 1.06
GTTGTAAAAG | 1
GTTGTAAGAA | 1.01
GTTGTAAGGC | 1.05
GTTGTCAATA | 1.02
GTTGTGATGG | 0.961
GTTGTTACGA | 0.971
GTTTACCCGG | 0.942
GTTTACCCTG | 0.976
GTTTACCGT | 1.02
GTTTACGACG | 1.01
GTTTATAACT | 1
GTTTATGAAC | 1.18
GTTTATGT | 1
GTTTCAAGTA | 1.06
GTTTCAGTTG | 0.982
GTTTCCATAT | 0.977
GTTTCCGGAA | 1.2

Sequence | switch fluorescence ratio
GTTTCCGTA | 0.974
GTTTCCTCGC | 2.8
GTTTCCTCTC | 1.01
GTTTCGGAAT | 1.08
GTTTCTAAGA | 0.997
GTTTCTCAAC | 1.01
GTTTGCCTGA | 1
GTTTGGTACT | 1.03
GTTTGGTGAC | 0.993
GTTTTAGTGA | 1.03
GTTTTAT | 1.02
GTTTTATGTC | 1.02
GTTTTATGTT | 0.981
GTTTTCTCGT | 0.95
GTTTTGCGTC | 0.978
GTTTTGGCGG | 0.975
GTTTTGTTGC | 0.993
GTTTTTAGTA | 1
GTTTTTCACC | 0.963
GTTTTTCCGT | 0.995
GTTTTTTAG | 1.02
TAAAAACAGA | 1.23
TAAAAACG | 1.33
TAAAACAATC | 1.02
TAAAAGCGCA | 0.968
TAAAAGTGC | 1.23

Sequence | switch fluorescence ratio
TAAAATACCT | 1.43
TAAAATGTCG | 0.957
TAAAATTAGA | 0.974
TAAAATTATC | 0.994
TAAACAAGGA | 1.01
TAAACATTGC | 1.58
TAAACGGCGT | 1.01
TAAACTCGCC | 1.12
TAAACTTTAA | 1.08
TAAAGAAGAA | 0.951
TAAAGACGAT | 1
TAAAGATTGT | 1.24
TAAAGGGGTC | 0.95
TAAAGTACGA | 1.21
TAAAGTGCAA | 1.05
TAAATAATGT | 1.03
TAAATAGAAA | 0.982
TAAATAGTCA | 1.01
TAAATGGCT | 0.985
TAAATTGGAC | 1.06
TAACAAAAGG | 1.02
TAACAATATG | 0.984
TAACAGACAG | 1.03
TAACAGCTA | 1.01
TAACAGT | 1.01
